# Hit rate of the full screen: of about 310,000 compounds, about 2,200 (0.71%) showed an effect of 50% or more. The effect is printed as a negative number. This is one part of the list.
# Biological target: human ether-à-go-go-related gene (hERG) potassium channel (human, UniProt Q12809)
# Experiment: primary screen, population patch clamp on CHO cells stably expressing hERG
# human ether-à-go-go-related gene (hERG) potassium channel, sequence (Q12809 whole entry, looked up): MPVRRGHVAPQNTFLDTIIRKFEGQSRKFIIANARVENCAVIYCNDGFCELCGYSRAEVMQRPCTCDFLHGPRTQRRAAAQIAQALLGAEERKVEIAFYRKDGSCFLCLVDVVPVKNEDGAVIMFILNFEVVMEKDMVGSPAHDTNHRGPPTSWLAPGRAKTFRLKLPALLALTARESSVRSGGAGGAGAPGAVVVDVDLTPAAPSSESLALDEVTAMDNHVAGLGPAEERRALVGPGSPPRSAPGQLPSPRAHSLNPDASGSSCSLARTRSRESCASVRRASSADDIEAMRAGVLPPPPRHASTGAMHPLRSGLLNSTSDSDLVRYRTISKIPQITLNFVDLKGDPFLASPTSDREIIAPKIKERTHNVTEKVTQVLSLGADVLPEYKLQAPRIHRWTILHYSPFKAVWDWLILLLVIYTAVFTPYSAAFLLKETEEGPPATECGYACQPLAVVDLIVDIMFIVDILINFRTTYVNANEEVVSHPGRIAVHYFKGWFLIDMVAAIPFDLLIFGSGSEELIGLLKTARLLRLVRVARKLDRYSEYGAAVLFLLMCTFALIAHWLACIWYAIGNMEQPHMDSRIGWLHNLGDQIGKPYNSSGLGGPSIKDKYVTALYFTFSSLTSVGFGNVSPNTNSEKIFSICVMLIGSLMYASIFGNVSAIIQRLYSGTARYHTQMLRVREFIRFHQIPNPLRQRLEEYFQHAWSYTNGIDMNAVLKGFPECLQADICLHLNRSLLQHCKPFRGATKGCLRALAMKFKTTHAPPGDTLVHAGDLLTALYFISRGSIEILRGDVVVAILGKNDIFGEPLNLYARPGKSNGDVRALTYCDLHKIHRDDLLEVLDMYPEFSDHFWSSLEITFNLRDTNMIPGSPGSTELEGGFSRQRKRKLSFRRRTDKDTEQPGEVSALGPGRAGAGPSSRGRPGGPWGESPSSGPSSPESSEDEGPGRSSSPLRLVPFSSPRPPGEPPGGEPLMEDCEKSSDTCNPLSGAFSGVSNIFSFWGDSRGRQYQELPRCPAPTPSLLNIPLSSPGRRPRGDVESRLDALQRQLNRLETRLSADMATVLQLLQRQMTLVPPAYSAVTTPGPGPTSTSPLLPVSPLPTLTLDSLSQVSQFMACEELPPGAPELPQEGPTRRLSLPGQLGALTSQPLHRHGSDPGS
row,Compound,"hERG current change (%, negative = inhibition) at 1uM [%]"
1,COc1ccc(C(=O)Nc2ccc(Oc3ncnc4sc(-c5ccccc5)cc34)cc2)cc1OC,9.25
2,COc1cccc(NC(=O)C2C3C=CC4(O3)C2C(=O)N(CCN2CCCCC2)C4C(=O)NC2CCCCC2C)c1 (stereo not drawn),19.2
3,CC(=O)Nc1ccc(-c2csc(NC(=O)Cc3ccccc3F)n2)cc1,5.85
4,COc1ccc(Nc2nnc(SC(C(=O)Nc3cc(C)ccc3C)c3ccccc3)s2)cc1 (stereo not drawn),3.8
5,NS(=O)(=O)c1cccc(NC(=O)CCCC2CCCCC2)c1,7.26
6,COc1cccc(N(C(=O)Cn2nnc(-c3ccc(C)o3)n2)C(C(=O)NC2CCCC2)c2ccncc2)c1 (stereo not drawn),14.5
7,O=C1CC(=O)N(c2ccc(Cl)cc2Cl)C(=O)N1,10.3
8,CN(C)/C=C(\C=N\OCc1ccc(Cl)cc1Cl)C(=O)Nc1ccc(Cl)c(Cl)c1,12.5
9,COc1ccc(-c2cc(C(=O)NCC3CCCO3)on2)cc1OC (stereo not drawn),9.24
10,CC(C)CNc1cc(N2CCCC2)ccc1[N+](=O)[O-],3.07
11,Cc1sc2nc(COC(=O)c3c(F)cccc3F)[nH]c(=O)c2c1C,3.23
12,COc1ccc(CN2CCC(n3nccc3NC(=O)c3cccc(F)c3)CC2)cc1O,-81.5
13,COc1cc2nc(N(CCCN(C)C)C(=O)c3ccc(C(=O)c4ccccc4)cc3)sc2cc1OC.Cl,-26
14,COc1ccc(Cl)cc1NC(=O)CN1CCC(NC(=O)C2CC2)CC1,-19.1
15,COC(=O)c1sc(N2C(=O)C(O)=C(C(=O)c3ccc(C)o3)C2c2cccs2)nc1C (stereo not drawn),2.84
16,CCOc1ccc(S(=O)(=O)NC2CCCCCC2)cc1,15.8
17,CC(=O)c1ccc(S(=O)(=O)Nc2ccc(-n3c(C)nc4ccccc4c3=O)cc2)cc1,-13.2
18,O=C(N/N=C/c1ccccc1)c1sccc1OCc1ccc(F)cc1,5.11
19,Cc1cc(C)cc(NS(=O)(=O)c2ccc(NC(=O)c3ccccc3C(=O)O)cc2)c1,11
20,Cc1nc(=O)c(-c2ccccc2)c(C)n1-c1ccc(Br)cc1,12.6
21,CCn1c(=O)n(CC)c2cc(N3CCCC3)c(NC(=O)c3cccc(C)c3)cc21,13.9

row,Compound,"hERG current change (%, negative = inhibition) at 1uM [%]"
1,N#Cc1c(-c2ccco2)nc(SCC(=O)Nc2ccc(S(N)(=O)=O)cc2)[nH]c1=O,4.26
2,CN(CC(=O)Nc1ccc(Cl)c(Cl)c1)CC(=O)Nc1ccc2c(c1)OCO2,13.6
3,CCOc1ccc(N2C(=O)CC(NCCc3ccncc3)C2=O)cc1 (stereo not drawn),4.99
4,Cc1c(Br)c([N+](=O)[O-])nn1C(C)C(=O)N1CCc2ccccc2C1 (stereo not drawn),9.83
5,O=C1C=C(c2ccccc2)CC(c2cccs2)C1n1cnc([N+](=O)[O-])c1 (stereo not drawn),9.79
6,Cc1ccc(/C=C2/C(=O)NC(=O)N(CCc3ccc(F)cc3)C2=O)o1,2.54
7,O=C(CNS(=O)(=O)c1cccc(F)c1)OCC(=O)N1CCCC1=O,-1.51
8,COc1ccc2c(c1)-c1nc(NC(=O)c3cccs3)sc1CC2,-4.19
9,CC(=O)Nc1ccc(N2C(=O)c3ccc(C(=O)Nc4nnc(SCc5ccc(F)cc5)s4)cc3C2=O)cc1,12.7
10,CCCOc1ccc(OCCOCCN2CCc3ccccc3C2)cc1,-33.2
11,CS(=O)(=O)N1CCN(c2ccccc2NC(=O)c2ccco2)CC1,-8.16
12,COc1ccc(S(=O)(=O)N2CCOCC2)cc1NC(=O)Cn1nnc2ccccc2c1=O,-4.67
13,Cc1ccc(NC(=O)Nc2cnccn2)cc1,7.58
14,CCc1ccc(NC(=O)CSc2ccc(-c3ccccn3)nn2)cc1,8.33
15,Fc1ccc(-c2n[nH]c(=S)c3ccccc23)cc1,9.98
16,CCN(CC(=O)Nc1ccc2c(c1)OCCO2)C(=O)c1cccc(OCC(C)C)c1,4.01
17,Cc1ccccc1OCCCC(=O)Nc1ccc2c(c1)OCO2,9.25
18,CN(Cc1ccccc1)C(=O)COC(=O)c1cc([N+](=O)[O-])ccc1N1CCOCC1,-3.85
19,CCO[C@@H]1OC(C(=O)N2CCN(Cc3ccc4c(c3)OCO4)CC2)=C[C@H](C)[C@H]1CCCO,-0.774
20,CC(=O)Nc1cccc(/C(C)=N\NC(=O)c2ccc(Cn3nc([N+](=O)[O-])c(Cl)c3C)o2)c1,21.6
21,COc1ccc(N=C2SC(C(=O)Nc3ccc4c(c3)OCO4)CC(=O)N2C)cc1 (stereo not drawn),14.4
